Source: the supplement of paper PMC4967469
By IC50 is meant the dose at which the fit gives 50% viability; fits outside the tested doses are given as limits. AUC sums up the same curve from the lowest dose to the 256-fold higher top dose; the more sensitive the line, the further below 1.

Compound: N#CC[C@H](C1CCCC1)n1cc(-c2ncnc3[nH]ccc23)cn1 [Ruxolitinib]
Assay: Viability of human cancer cell lines after 72 h of drug (GDSC screen)
Description: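 Human cancer cell lines in 384-well plates, medium with 10% serum, drug for 72 h over a 256-fold dose range (nine 2-fold or five 4-fold steps up to the top dose). Adherent lines were fixed and stained with the nucleic acid dye Syto60, suspension lines read with resazurin; signal relative to control wells, capped at 0 and 100%. One two-parameter sigmoid per drug and line, fitted in a mixed model over all curves with the slope shared within a line.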

Row | Cell Line | AUC | IC50 [µM]
1 | LAN-6 (neuroblastoma, adherent, top dose 5.24 µM) | 0.978 | > 5.24
2 | KARPAS-620 (haematopoietic neoplasm, suspension, top dose 5.24 µM) | 0.977 | > 5.24
3 | OCI-AML5 (acute myeloid leukaemia, suspension, top dose 5.24 µM) | 0.965 | > 5.24
4 | JVM-3 (lymphoid neoplasm, suspension, top dose 5.24 µM) | 0.987 | > 5.24
5 | CP50-MEL-B (melanoma, adherent, top dose 5.24 µM) | 0.988 | > 5.24
6 | BT-20 (breast, adherent, top dose 5.24 µM) | 0.983 | > 5.24
7 | KMS-11 (myeloma, suspension, top dose 5.24 µM) | 0.991 | > 5.24
8 | NCI-H2009 (lung adenocarcinoma, adherent, top dose 5.24 µM) | 0.985 | > 5.24
9 | C-33-A (cervix, adherent, top dose 5.24 µM) | 0.983 | > 5.24
10 | Ca-Ski (cervix, adherent, top dose 5.24 µM) | 0.979 | > 5.24
11 | HT-3 (cervix, adherent, top dose 5.24 µM) | 0.98 | > 5.24
12 | MSTO-211H (mesothelioma, adherent, top dose 5.24 µM) | 0.991 | > 5.24
13 | H3255 (lung adenocarcinoma, adherent, top dose 5.24 µM) | 0.982 | > 5.24
14 | RCC-MF (kidney, adherent, top dose 5.24 µM) | 0.972 | > 5.24
15 | MKN28 (stomach, adherent, top dose 5.24 µM) | 0.986 | > 5.24
16 | Mo-T (hairy cell leukaemia, suspension, top dose 5.24 µM) | 0.98 | > 5.24
17 | PL-21 (acute myeloid leukaemia, suspension, top dose 5.24 µM) | 0.933 | > 5.24
18 | LNCaP-Clone-FGC (prostate, adherent, top dose 5.24 µM) | 0.984 | > 5.24
19 | SW1990 (pancreas, adherent, top dose 5.24 µM) | 0.985 | > 5.24
20 | ESS-1 (endometrium, adherent, top dose 5.24 µM) | 0.985 | > 5.24
21 | SAT (head and neck, adherent, top dose 5.24 µM) | 0.973 | > 5.24
22 | 451Lu (melanoma, adherent, top dose 5.24 µM) | 0.989 | > 5.24
23 | NB10 (neuroblastoma, adherent, top dose 5.24 µM) | 0.98 | > 5.24
24 | ES1 (Ewing sarcoma, adherent, top dose 5.24 µM) | 0.984 | > 5.24
25 | BB65-RCC (kidney, adherent, top dose 5.24 µM) | 0.982 | > 5.24
26 | HCC1143 (breast, adherent, top dose 5.24 µM) | 0.975 | > 5.24
27 | SHP-77 (small cell lung carcinoma, semi-adherent, top dose 5.24 µM) | 0.99 | > 5.24

Row | Cell Line | AUC | IC50 [µM]
28 | NCI-H1395 (lung adenocarcinoma, adherent, top dose 5.24 µM) | 0.98 | > 5.24
29 | LOUCY (T-cell lymphoblastic leukaemia, suspension, top dose 5.24 µM) | 0.921 | > 5.24
30 | NCI-H1915 (large cell lung carcinoma, adherent, top dose 5.24 µM) | 0.984 | > 5.24
31 | OE21 (oesophagus, adherent, top dose 5.24 µM) | 0.977 | > 5.24
32 | A388 (skin, adherent, top dose 5.24 µM) | 0.983 | > 5.24
33 | LN-18 (glioma, adherent, top dose 5.24 µM) | 0.992 | > 5.24
34 | Hs746T (stomach, adherent, top dose 5.24 µM) | 0.904 | > 5.24
35 | PANC-02-03 (pancreas, adherent, top dose 5.24 µM) | 0.983 | > 5.24
36 | 201T (lung adenocarcinoma, adherent, top dose 5.24 µM) | 0.97 | > 5.24
37 | HCC2998 (large intestine, adherent, top dose 5.24 µM) | 0.988 | > 5.24
38 | BICR78 (head and neck, adherent, top dose 5.24 µM) | 0.981 | > 5.24
39 | RCC-JW (kidney, adherent, top dose 5.24 µM) | 0.986 | > 5.24
40 | KGN (ovary, adherent, top dose 5.24 µM) | 0.98 | > 5.24
41 | H4 (glioma, adherent, top dose 5.24 µM) | 0.986 | > 5.24
42 | COLO-684 (endometrium, suspension, top dose 5.24 µM) | 0.973 | > 5.24
43 | NCI-H2030 (lung adenocarcinoma, adherent, top dose 5.24 µM) | 0.971 | > 5.24
44 | SUP-T1 (T-cell lymphoblastic leukaemia, suspension, top dose 5.24 µM) | 0.983 | > 5.24
45 | KYSE-410 (oesophagus, adherent, top dose 5.24 µM) | 0.985 | > 5.24
46 | NCI-H292 (lung adenocarcinoma, adherent, top dose 5.24 µM) | 0.932 | > 5.24
47 | MDA-MB-453 (breast, adherent, top dose 5.24 µM) | 0.981 | > 5.24
48 | NCI-H1437 (lung adenocarcinoma, adherent, top dose 5.24 µM) | 0.986 | > 5.24
49 | OV-7 (ovary, adherent, top dose 5.24 µM) | 0.976 | > 5.24
50 | SW837 (large intestine, adherent, top dose 5.24 µM) | 0.982 | > 5.24
51 | 647-V (bladder, adherent, top dose 5.24 µM) | 0.963 | > 5.24
52 | GAMG (glioma, adherent, top dose 5.24 µM) | 0.972 | > 5.24
53 | NUGC-4 (stomach, adherent, top dose 5.24 µM) | 0.986 | > 5.24
54 | MOLP-8 (myeloma, suspension, top dose 5.24 µM) | 0.961 | > 5.24

Row | Cell Line | AUC | IC50 [µM]
55 | BICR31 (head and neck, adherent, top dose 5.24 µM) | 0.988 | > 5.24
56 | SISO (cervix, adherent, top dose 5.24 µM) | 0.987 | > 5.24
57 | NCI-H2342 (lung adenocarcinoma, adherent, top dose 5.24 µM) | 0.986 | > 5.24
58 | MC116 (B-cell lymphoma, suspension, top dose 5.24 µM) | 0.999 | > 5.24
59 | KON (head and neck, adherent, top dose 5.24 µM) | 0.987 | > 5.24
60 | CHP-134 (neuroblastoma, suspension, top dose 5.24 µM) | 0.97 | > 5.24
61 | NCI-H1304 (small cell lung carcinoma, suspension, top dose 5.24 µM) | 0.963 | > 5.24
62 | UM-UC-3 (bladder, adherent, top dose 5.24 µM) | 0.978 | > 5.24
63 | HSC-3 (head and neck, adherent, top dose 5.24 µM) | 0.99 | > 5.24
64 | NCI-H23 (lung adenocarcinoma, adherent, top dose 5.24 µM) | 0.976 | > 5.24
65 | CFPAC-1 (pancreas, adherent, top dose 5.24 µM) | 0.984 | > 5.24
66 | RT-112 (bladder, adherent, top dose 5.24 µM) | 0.984 | > 5.24
67 | NY (osteosarcoma, adherent, top dose 5.24 µM) | 0.989 | > 5.24
68 | NCI-H1417 (small cell lung carcinoma, suspension, top dose 5.24 µM) | 0.916 | > 5.24
69 | OV-90 (ovary, adherent, top dose 5.24 µM) | 0.979 | > 5.24
70 | EW-18 (Ewing sarcoma, suspension, top dose 5.24 µM) | 0.983 | > 5.24
71 | SU-DHL-5 (B-cell lymphoma, suspension, top dose 5.24 µM) | 0.994 | > 5.24
72 | OS-RC-2 (kidney, adherent, top dose 5.24 µM) | 0.978 | > 5.24
73 | NB(TU)1-10 (neuroblastoma, adherent, top dose 5.24 µM) | 0.993 | > 5.24
74 | HCC202 (breast, adherent, top dose 5.24 µM) | 0.979 | > 5.24
75 | L-540 (Hodgkin lymphoma, suspension, top dose 5.24 µM) | 0.99 | > 5.24
76 | COLO-783 (melanoma, adherent, top dose 5.24 µM) | 0.991 | > 5.24
77 | NALM-6 (B-cell leukaemia, suspension, top dose 5.24 µM) | 0.975 | > 5.24
78 | NCI-H1993 (lung adenocarcinoma, adherent, top dose 5.24 µM) | 0.981 | > 5.24
79 | KYSE-70 (oesophagus, adherent, top dose 5.24 µM) | 0.984 | > 5.24
80 | RKN (ovary, adherent, top dose 5.24 µM) | 0.984 | > 5.24
